Hit rate of the full screen: of about 280,000 compounds, about 1,100 (0.39%) were called active. The inconclusive results got no clear call from the source; some entries with a clear call stand among them for comparison. The call rests on the fitted dose curve; in most records, active means well fitted inhibition curve with a large enough effect; inconclusive means small, poorly fitted or top-dose-only effect, or effect the other way; inactive means flat fitted curve, though single readings scatter. No potency is given beside an inconclusive call; the fits are too rough.
The molecules below were run against Microtubule-associated protein tau (Homo sapiens) (UniProt P10636) (assay: qHTS for Inhibitors of Tau Fibril Formation, Fluorescence Polarization). Details: K18 P301L tau heparin fibrillization, Alexa594 FP, 6 h; series mostly up to 57.7 µM.
Summary of the method: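 Heparin (20 uM) drove fibril formation of recombinant tau K18 P301L, 15 uM unlabeled with 0.24 uM Alexa 594 label, for 6 hr at 37 C in 100 mM sodium acetate pH 7. Fluorescence polarization (555/632 nm) read 1 hr after 30 uM ThT.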
Further: nearly all actives have a fitted effect of over 55% in size.
Potency means the concentration at half of the fitted maximal effect; tags describe the fitted curve by direction and shape.

UniProt P10636, sequence (P10636 whole entry, looked up): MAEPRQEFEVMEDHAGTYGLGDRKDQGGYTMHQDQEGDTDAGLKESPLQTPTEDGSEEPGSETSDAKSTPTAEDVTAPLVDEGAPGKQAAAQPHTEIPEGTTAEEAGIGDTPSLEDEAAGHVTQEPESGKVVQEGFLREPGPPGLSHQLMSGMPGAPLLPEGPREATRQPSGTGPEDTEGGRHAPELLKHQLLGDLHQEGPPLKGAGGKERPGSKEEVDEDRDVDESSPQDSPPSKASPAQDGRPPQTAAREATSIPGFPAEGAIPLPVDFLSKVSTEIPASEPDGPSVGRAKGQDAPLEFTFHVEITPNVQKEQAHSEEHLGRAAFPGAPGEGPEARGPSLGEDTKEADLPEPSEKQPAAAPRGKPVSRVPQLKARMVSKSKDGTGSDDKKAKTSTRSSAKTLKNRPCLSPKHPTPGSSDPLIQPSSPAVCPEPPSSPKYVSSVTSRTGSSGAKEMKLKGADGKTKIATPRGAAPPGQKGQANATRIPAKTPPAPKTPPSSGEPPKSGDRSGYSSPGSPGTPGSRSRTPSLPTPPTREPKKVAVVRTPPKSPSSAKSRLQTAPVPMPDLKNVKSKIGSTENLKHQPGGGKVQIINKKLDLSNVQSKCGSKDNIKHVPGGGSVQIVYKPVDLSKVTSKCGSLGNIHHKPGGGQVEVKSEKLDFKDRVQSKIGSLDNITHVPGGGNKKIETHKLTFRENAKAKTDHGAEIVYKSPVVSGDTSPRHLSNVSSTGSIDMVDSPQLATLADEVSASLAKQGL

| Structure (SMILES) | Potency |
| --- | --- |
| COc1ccc(O[C@H]2C=C[C@@H](c3ccccc3)O[C@H]2COC(=O)CC/C(C)=N/OCC[C@@H]2C=C[C@H](OC(C)=O)[C@H](COC(C)=O)O2)cc1 | inconclusive [inhibitor, single point] |
| CCn1c(=O)cc(SCC(=O)Nc2cc(Cl)ccc2OC)c2ccccc21 | inactive |
| CC(=O)Nc1ccc(S(=O)(=O)N2C(=O)c3cccc4cccc2c34)cc1 | inconclusive [inhibitor, partial curve] |
| c1ccc(-c2cc3nccc(-c4ccccn4)n3n2)cc1 | inconclusive [inhibitor, partial curve] |
| COc1cccc(-c2nn(C)c3sc(C(=O)NCCc4cccc(C)c4)cc23)c1 | inconclusive [inhibitor, partial curve] |
| CCc1cccc(NC(=O)CSc2n[nH]c(-c3ccccc3Cl)n2)c1 | inconclusive [inhibitor, single point] |
| O=C(Nc1ccc2nc(SCCOc3ccccc3Cl)sc2c1)c1ccco1 | inconclusive [inhibitor, partial curve] |
| CCOc1ccc(NC(=O)Nc2ccc3nsnc3c2)cc1 | inactive |
| O=C(c1cc2c(s1)CCCC2)N1CCN(S(=O)(=O)c2ccccc2C(F)(F)F)CC1 | inconclusive [activator, single point] |
| CC(=O)c1c(C)[nH]c(C(=O)COc2cc(C)cc(C)c2)c1C | inactive |
| COc1ccc(-c2nn(-c3ccccc3)cc2C(=O)Nc2nc(CC(C)=O)ns2)cc1 | inconclusive [inhibitor, partial curve, poor fit] |
| COc1ccc2sc(N(Cc3cccnc3)C(=O)C3COc4ccccc4O3)nc2c1 (stereo not given) | inconclusive [inhibitor, single point] |
| CCCC(C)c1nnc(NC(=O)C2CCCO2)s1 (stereo not given) | inactive |
| Cc1ccc2c(=O)cc(C(=O)Nc3ccc(S(=O)(=O)N4CCCCC4)cc3)oc2c1 | inconclusive [inhibitor, full curve, poor fit] |
| CCn1cc(C(=O)NCc2cccnc2)c2cc(OC)c(OC)cc2c1=O | inactive |
| COc1cccc(N2CCN(C(=O)c3cc4c(=O)n(Cc5cccnc5)ccc4nc3C)CC2)c1 | inactive |
| CCN1CCN(S(=O)(=O)c2cccc([N+](=O)[O-])c2)CC1 | inconclusive [inhibitor, full curve, poor fit] |
| Cc1cnn(CCC(=O)NNC(=S)Nc2ccc(F)cc2)c1 | inactive |
| CCOC(=O)CSc1cc(CSc2ccccc2)nc(-c2ccccc2)n1 | inconclusive [inhibitor, partial curve, poor fit] |
| CCC(Cc1ccccc1)NC(=O)CCS(=O)(=O)c1cc2c(cc1Cl)NC(=O)CO2 (stereo not given) | inconclusive [inhibitor, partial curve] |
| C[n+]1c2n(c3ccccc31)N=C(c1ccc(Br)cc1)CS2 | inconclusive [inhibitor, single point] |
| CC(C)(O)C1Cc2cc(/C=C/C(=O)O)c(O)cc2O1 (stereo not given) | inactive |
| COc1cc(OC)c2ccc(=O)oc2c1C(CCN1CCOCC1)c1ccc(N(C)C)cc1 (stereo not given) | inactive |

| Structure (SMILES) | Potency |
| --- | --- |
| COc1cc(O)ccc1-c1nc2cc(C)ccn2c1Nc1ccccc1C | inconclusive [activator, partial curve, poor fit] |
| CC(C)c1ccc2oc(-c3cc(NC(=O)c4cccnc4)ccc3Cl)nc2c1 | active: 7.94 µM |
| COc1ccc(-c2cccc(C(=O)Nc3ccccc3C)c2)cc1 | inactive |
| O=C(C1=C[C@H](c2ccccc2)C[C@H](OCc2ccc(CO)cc2)O1)N1CCN(Cc2ccccc2)CC1 | inactive |
| CCOC(=O)c1ccc(NC(=O)c2nc[nH]c2C(=O)N[C@H](C)c2ccccc2)cc1 | inconclusive [inhibitor, partial curve] |
| O=C1Nc2cc(Cl)cnc2N2CCCC12 (stereo not given) | inconclusive [inhibitor, partial curve] |
| CCc1ccc(NS(=O)(=O)c2ccc(NC(=O)N3CCCC3)cc2)cc1 | inconclusive [inhibitor, single point] |
| Cc1ccc(C)c(CSc2cn(CCNC(=O)c3cccs3)c3ccccc23)c1 | inactive |
| O=C(Nc1ccc(Cl)c(Cl)c1)c1cccc(S(=O)(=O)NCc2cccnc2)c1 | inconclusive [inhibitor, single point] |
| CN1CCN(C(=O)/C(=C\c2ccccc2)c2ccccc2)CC1 | inconclusive [inhibitor, single point] |
| COc1ccc(-c2nc(-c3ccc(NC(=O)c4ccncc4)cc3)no2)cc1OC | inactive |
| Fc1ccc(C[n+]2csc3ccccc32)cc1 | inconclusive [inhibitor, partial curve] |
| COc1cc(NC(=O)c2cc(S(=O)(=O)N3CCC(C)CC3)cn2C)cc(OC)c1OC | inactive |
| Cc1ccc(-c2c3c(nc4sc(C(N)=O)c(N)c24)CCCC3)o1 | inactive |
| Cc1cc2nc(SCC(=O)Nc3nonc3C)c3c(c2cc1C)CCCC3 | inactive |
| COc1cccc(NC(=S)/C(=C(\[O-])c2ccc(C)c([N+](=O)[O-])c2)[n+]2ccccc2)c1 | inactive |
| Cc1ccc(NC(=O)Cn2nc(-c3ccccc3)nc2-c2ccccc2)c(C)c1 | inconclusive [inhibitor, single point] |
| O=C(NCCc1c[nH]c2ccccc12)C(=O)NCC1OCCCN1S(=O)(=O)c1cc(F)ccc1F (stereo not given) | inconclusive [activator, single point] |
| Cc1ccccc1N=C(NOCc1ccc(Cl)cc1Cl)c1nonc1N | inconclusive [inhibitor, full curve] |
| O=C1/C(=C\c2ccccn2)SC(=S)N1c1ccc(S(=O)(=O)Nc2nccs2)cc1 | inactive |
| CC(C)(C)C(=O)Nc1ccc2nc(SCCOc3ccccc3Cl)sc2c1 | inconclusive [inhibitor, partial curve] |
| O=C(O)c1cccc(-n2cccc2/C=N/O)c1 | inconclusive [inhibitor, single point] |

Reference: PubChem BioAssay AID1468 (National Center for Advancing Translational Sciences (NCATS), 2008)
